The full ranking holds about 110,000 compounds; the median of “z-score” is about -0.1, and the highest 2% start at about 2. The list shows a part of the results.

The target of the experiment is Metabotropic glutamate receptor 8 (Rattus norvegicus) (UniProt P70579). Put plainly: rat mGluR8 modulators via GIRK flux, primary screen, cell-based, thallium flux, HTS (AID 488969). As to conditions: HEK293 rat mGluR8, GIRK (G protein-gated inwardly rectifying potassium channel) thallium flux, FluoZin2; at 10 µM; stronger effect = higher value; submaximal glutamate (EC20) added with thallium.
Chain of UniProt P70579 (P70579 whole entry, looked up): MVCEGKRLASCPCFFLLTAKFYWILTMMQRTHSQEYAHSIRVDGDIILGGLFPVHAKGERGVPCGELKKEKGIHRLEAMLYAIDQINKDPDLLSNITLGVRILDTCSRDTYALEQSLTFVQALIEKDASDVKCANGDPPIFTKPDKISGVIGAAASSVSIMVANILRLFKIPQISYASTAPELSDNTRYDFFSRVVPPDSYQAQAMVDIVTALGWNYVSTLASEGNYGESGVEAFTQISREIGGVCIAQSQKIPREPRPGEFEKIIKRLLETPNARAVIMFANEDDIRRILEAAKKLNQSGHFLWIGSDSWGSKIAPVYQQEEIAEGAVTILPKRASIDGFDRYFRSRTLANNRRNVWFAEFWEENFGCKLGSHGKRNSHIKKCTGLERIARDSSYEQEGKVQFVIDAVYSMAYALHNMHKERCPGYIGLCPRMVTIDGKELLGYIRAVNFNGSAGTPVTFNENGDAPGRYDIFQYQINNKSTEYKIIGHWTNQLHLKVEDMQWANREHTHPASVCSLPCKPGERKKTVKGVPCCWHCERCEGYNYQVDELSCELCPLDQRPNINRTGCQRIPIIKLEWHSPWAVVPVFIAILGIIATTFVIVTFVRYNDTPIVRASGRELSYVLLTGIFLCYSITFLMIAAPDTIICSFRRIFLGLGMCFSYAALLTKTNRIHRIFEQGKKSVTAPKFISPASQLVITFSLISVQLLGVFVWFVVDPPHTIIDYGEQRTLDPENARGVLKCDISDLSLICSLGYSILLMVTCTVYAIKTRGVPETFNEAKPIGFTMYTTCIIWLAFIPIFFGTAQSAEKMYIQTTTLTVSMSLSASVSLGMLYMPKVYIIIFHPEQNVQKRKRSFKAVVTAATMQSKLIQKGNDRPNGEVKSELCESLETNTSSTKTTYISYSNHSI
Turning to `Cc1cc(C)n(CC(=O)N/N=C/c2ccco2)n1`, the z-score is -0.0112.
In the case of `O=C(Nc1ccc(O)cc1)/C(=C\c1cccs1)NC(=O)c1ccccc1`, the z-score was -0.207.
For `CCOC(=O)C1CCN(C(=O)C2CCN(S(=O)(=O)c3cc(Cl)ccc3Cl)CC2)CC1` the value was -0.787; for `c1ccc2c(c1)NC1(CCCC1)n1c-2nc2ccccc21`, 0.000719; for `COc1ccccc1/C=N/NC(=O)c1ccc(Cn2nc([N+](=O)[O-])cc2C)cc1`, -0.00192.
As for `CN(C)/C=C/C=C1C(=O)CCCC1=O`, the figure is -0.105; as for `CCOC(=O)CSc1nnc(CNC(=O)c2ccc(OC)cc2)n1C1CCCCC1`, -0.603.
For `O=C(NC1CCCCC1)C(c1ccc(F)cc1)N(C(=O)Cc1ccsc1)c1ccc(F)cc1` (centres undefined) the value was -0.112; for `O=C(Nc1ccon1)c1csc2c1CCCC2`, -0.0861; for `O=C(NCCCO)C12CC3CC(CC(C3)C1)C2`, 0.182.
Regarding `O=S(=O)(c1ccc(Cl)c(NC(=S)N/N=C/c2c(F)cccc2F)c1)N1CCOCC1`, the z-score was -0.203.
For `CCn1nc(C)c(NC(=O)/C=C/c2cnn(C)c2)c1C` the value was 0.244; for `Cc1cc(C)n(C(=O)CNc2ccc(C)c(C)c2)n1`, 0.00249; for `CCOC(=O)N1CCN(C(=O)c2cccc(-n3c(=S)[nH]c4cc(Cl)ccc4c3=O)c2)CC1`, 1.32.
For `O=C(Oc1ccc(Br)cc1)c1cncc(Br)c1` the value was 0.054.
As for `COc1ccc(Cc2nc3ccccc3n2CC(=O)N/N=C/c2ccccc2)cc1OC`, the figure is 0.201; as for `COc1ccccc1OCc1ccc(C(=O)NCC2CCCO2)o1` (centres undefined), -0.025; as for `COc1ccc2nc(N3CCC(C)CC3)c(C#N)cc2c1`, -0.192.
Take `COc1ccc(-c2cc(C(=O)OCC(=O)c3cccc([N+](=O)[O-])c3)c3cc(C)ccc3n2)cc1`: the z-score is -0.0316.
For `COc1ccc2[nH]c(=O)c(CN(CCc3ccccc3)C(C)=O)cc2c1` the value was 0.442; for `CCOC(=O)c1sc2nc(C)n(CC(=O)NCC3CCCO3)c(=O)c2c1C` (centres undefined), 0.0771; for `NC(=O)c1ccc(Br)c(S(=O)(=O)N2CCCCC2)c1`, 1.64.
For `O=S(=O)(c1ccccc1C(F)(F)F)N1CCOCC1` the value was -0.598; for `CCS(=O)(=O)N1CCc2cc(OC)c(OC)cc2C1`, -0.177.
With `Cc1nc(Sc2nnnn2-c2ccccc2)c(C#N)c(C)c1C`, the z-score was -0.282.
For `Cc1ccc(NC(=O)c2ccc(N3CCOCC3)c([N+](=O)[O-])c2)cc1S(=O)(=O)N1CCOCC1` the value was -0.139.
For `O=S(=O)(NCCc1csc(-c2cccnc2)n1)c1cccs1` the value was -0.387; for `CCC(=O)Nc1cc(C(=O)NCC2CCCN2CC)c(OC)cc1N(C)C` (centres undefined), -0.0885; for `COC(=O)c1cccc(S(=O)(=O)N(Cc2ccco2)Cc2cc3cc(OC)c(OC)cc3[nH]c2=O)c1`, -0.296.
For `c1ccc(-c2nnc(CSc3nncs3)o2)cc1` the value was 0.334; for `Nc1nc(SCc2ccc(Cl)cc2Cl)ns1`, 0.11.
In the case of `COc1ccc(S(=O)(=O)Nc2cc(C)nn2-c2ccccc2)cc1`, the z-score worked out at 0.0566.
As for `CCN(CC)c1ccc(/C=N/NC(=O)Cc2nnc(NC(=O)Nc3ccccc3)s2)cc1`, the figure is -0.282; as for `COc1ccc(Br)cc1CNc1ccc(O)cc1`, -0.14; as for `CCOc1ccc(C(NC(=O)c2ccco2)c2ccc(OC)c(OC)c2)cc1` (centres undefined), -0.0569.
For `COc1cccc(-c2[nH]nc3c2C(c2ccoc2)C(C#N)=C(N)O3)c1` (centres undefined) the value was -0.294; for `Cc1ccc(N=C2NC(=O)c3cc([N+](=O)[O-])ccc32)cc1`, -0.049.
As for `Clc1ccc(-c2nnc3n2CCCC3)cc1`, the figure is 0.0266; as for `CC(C)C(=O)Nc1nnc(-c2ccccc2)o1`, 0.162; as for `Fc1ccccc1CSc1nnc(Cn2cnc3ccccc32)n1-c1ccccc1`, -0.176.
`O=C(CSc1nnc(-c2ccccc2)n1Cc1ccco1)Nc1ccc(S(=O)(=O)N2CCCC2)cc1`: the z-score was -1.61.
For `N#Cc1c(-c2ccccc2)[nH]c(=S)[nH]c1=O` the value was -0.744.
For `COc1cccc(-c2csc(N3CCN(C(=S)Nc4ccc(Cl)cc4)CC3)n2)c1` the value was 0.0281.
For `O=C(NCCSc1ccccc1)c1ccccc1` the value was 0.0148.
For the compound `Cn1c(=O)c(NCCc2ccccc2)c2c3c(cccc31)C(=O)c1ccccc1-2`, the z-score was 1.94.
For `NC(=O)COC(=O)CNC(=O)c1ccc(Cl)cc1` the value was -0.0355; for `CC(=O)Nc1ccc(OCC(=O)c2ccc(C)cc2C)cc1`, 0.0995; for `CC(C)(C)N(Cc1ccccc1)C(=O)c1ccc2c(c1)OCCO2`, -0.815.
Take `CCC(C)N1C(=O)CCC1C(=O)O` (centres undefined): the z-score was -0.00449.
As for `CC(C)C1C(=O)NC(=S)N1S(=O)(=O)c1ccc(C(C)(C)C)cc1` (centres undefined), the figure is 0.126; as for `CSc1nnc(Cc2sc(-c3ccccc3)nc2-c2ccccc2)o1`, -0.0737.
For `COc1cc(/C=C/C(=O)O)cc(S(=O)(=O)Nc2ccccc2Cl)c1OC` the value was -0.238; for `Cc1[nH]c(=S)[nH]c(=O)c1CCOc1ccccc1`, 0.0445; for `CC1(C)CC(=O)CC(C2(O)C(=O)N(Cc3ccccc3)c3ccccc32)O1` (centres undefined), 0.107.
As for `Cc1ccc(NCc2nnc(SCC(N)=O)n2CCc2ccccc2)cc1`, the figure is -1.03; as for `OCCNc1ncnc2c1ncn2Cc1ccccc1`, -0.662; as for `CCc1ccc(S(=O)(=O)NCCc2csc(-c3cccnc3)n2)s1`, -0.459.
For `Cc1ccc(SCC(=O)NCCCN2CCOCC2)cc1`, the z-score is -0.175.
As for `CCC(=O)Nc1c(-c2ccc(OC)cc2)c(=O)c2ccccc2n1C`, the figure is 2.76; as for `O=C1c2cc3ccccc3c(-c3ccccc3)c2C(=O)N1c1ccccn1`, -0.0793.
For `Cc1ccnc(NS(=O)(=O)Cc2ccccc2)c1` the value was 0.201; for `Cc1ccccc1OCC(=O)OC1CCN(C)CC1`, 0.459.
As for `CCN1CCN(CCNC(=O)C2CCN(Cc3nc(-c4ccc(Cl)cc4)oc3C)CC2)CC1`, the figure is 0.0923.
Regarding `COc1ccccc1-n1c(SCC(N)=O)nc2c(c1=O)SCC2`, the z-score is -0.2.
As for `O=S(=O)(Nc1ccn(-c2ccccc2)n1)c1ccc(Br)cc1`, the figure is -0.000107.
For `c1ccc(C2c3c(ccc4ccccc34)Oc3ncn4nc(-c5ccco5)nc4c32)cc1` (centres undefined) the value was -0.0796; for `Cc1nnc(N2CCOCC2)c2nn(-c3cccc(Cl)c3)c(C)c12`, -0.883.
For `Cc1ccccc1N/C=C/C(=C(C#N)C#N)N(C)C` the value was -0.141; for `COc1ccccc1OCc1nc(C#N)c(N2CC(C)CC(C)C2)o1` (centres undefined), -0.0217; for `Clc1cccc(N/N=C/c2ccc(N3CCOCC3)cc2)c1`, -0.176.
`COc1ccc(-n2nnnc2SCC(=O)Nc2ccc3c(c2)OCCO3)cc1OC`: the z-score is 0.861.
For `O=C(Nc1ccc(Cl)cc1)N1CCSc2ccccc21`, the z-score is -0.00414.
As for `CCOc1ccccc1NC(=O)CCC(=O)O`, the figure is -0.336; as for `COC(=O)c1ccc(N2C(=O)CC(N(C)Cc3ccccc3)C2=O)cc1` (centres undefined), 0.205; as for `CC(C)CCNC(=O)NC(=O)COC(=O)/C=C/c1cnc2ccccc2n1`, -0.278.
As for `COC(=O)c1cc(C#N)c(NCc2ccccc2)nc1C`, the figure is -0.361; as for `O=C(Nc1nccs1)C1CCCN1S(=O)(=O)c1cccc2cccnc12` (centres undefined), 0.0342; as for `Cc1nnc2c(Oc3ccccc3)nc3ccccc3n12`, 0.725.
As for `COc1ccc(-n2ncc3c(N4CCc5ccccc54)ncnc32)cc1`, the figure is -0.0249; as for `CCOC(=O)N1CCN(C(=O)c2cccc(OC)c2O)CC1`, -0.108.
In the case of `Cc1ccccc1CSc1n[nH]c(NS(=O)(=O)c2ccccc2)n1`, the z-score was -0.232.
As for `COc1ccc(CCN(C)C(=O)CN2C(=O)c3ccccc3S2(=O)=O)cc1OC`, the figure is -0.354.
For `CCOC(=O)c1sc(NC(=O)c2c(OC)cccc2OC)nc1C` the value was -0.0301.
Consider `CCCC(=O)c1cc(F)c(N2CCN(S(=O)(=O)c3ccccc3)CC2)cc1C`, for which the z-score came out at 1.1.
For `CCCc1cc(C(=O)Cc2nc3ccccc3s2)c(O)cc1O` the value was -0.268.
For `Cc1ccc2cccc(N=Cc3c(C)[nH]n(-c4ccccc4)c3=O)c2n1` the value was 0.282; for `N/C(Cc1ccc(Cl)cc1)=N\OC(=O)Cc1ccc([N+](=O)[O-])cc1`, -0.0327.
As for `CCCCNC(=O)c1ccccc1Cl`, the figure is -0.135; as for `CCC(C)[C@H](Nc1nc(-c2ccccc2)nc2c1oc1ccccc12)C(=O)O` (some centres undefined), -0.972; as for `CC1CCN(Cc2ccc(NC(=O)CC3Oc4ccccc4NC3=O)cc2)CC1` (centres undefined), -0.528.
In the case of `COC(=O)c1sc(=S)n(-c2ccc(Cl)cc2)c1C`, the z-score is -1.6.
`CCOC(=O)c1cnn(CCOC(=O)c2cccs2)c1NC(=O)c1cccs1`: the z-score came out at 0.303.
`COc1ccc(OCC(=O)OCC(=O)NCc2ccco2)cc1` displayed a z-score of 0.117.
For `CC(NC(=O)CN1CCC(C(N)=O)CC1)c1ccccc1` (centres undefined) the value was -0.0375.
`COc1ccc(NC(C)=O)cc1NC(=O)CSc1nc2ncccc2[nH]1`: the z-score stood at 0.109.
As for `Cc1cc(NC(=O)c2ccco2)ncc1NC(=O)CCc1ccccc1`, the figure is -0.188.
As for `O=C(c1cc2cc(Cl)ccc2oc1=O)N1CCCC1`, the figure is 0.142; as for `CCOC(=O)CSc1nccc(N(C)C)c1C#N`, 0.144.
For `COc1ccccc1NC(=S)NCc1cccs1` the value was -0.127.
Compound `O=C(OCC(=O)N1CCN(c2ccccc2)CC1)c1cccc(Cl)c1` gave a z-score of 0.0206.
`Cc1noc2ncnc(Oc3ccc(F)cc3)c12`: the z-score stood at 0.0343.
As for `CCCCn1c(-c2ccccc2)cnc1SCC(=O)NCCc1ccc(OC)c(OC)c1`, the figure is -0.549.
For `CC12CCC(C(=O)N3CCN(C(c4ccccc4)c4ccccc4)CC3)(OC1=O)C2(C)C` (centres undefined) the value was -0.194; for `c1ccc(Cc2nnc3sc(-c4ccccn4)nn23)cc1`, -0.936; for `CC(C)c1ccccc1NC(=S)NC(C)c1ccccc1` (centres undefined), 0.112.
For `COc1cccc(N(C(=O)Cn2nnc(-c3cccs3)n2)C(C(=O)NC(C)C)c2ccc(C)o2)c1` (centres undefined) the value was 1.38; for `CCOC(=O)C1=C(C)Nc2sc(C(=O)c3ccc(OC)cc3)c(N)c2C1c1ccc(C(=O)OC)cc1` (centres undefined), -0.146.
As to `CC(=O)c1ccc(N(C(=O)Cn2nnc(-c3ccccc3)n2)C(C(=O)NC2CCCCC2)c2ccccn2)cc1` (centres undefined), the z-score was -0.135.
As for `Cc1csc(NC(=O)/C=C/c2ccc(C)o2)n1`, the figure is 0.0991.
Turning to `O=C(O)c1cc(NCc2ccccc2)ccc1N1CCOCC1`, the z-score was -0.122.
As for `Nc1c(C(=O)c2ccccc2)sc2c1c(=O)[nH]c(=O)n2-c1ccccc1`, the figure is -0.584.
`CSc1ccccc1NC(=O)CN(C1CCCCC1)S(C)(=O)=O` had a z-score of 0.0928.
For `O=C1CC(c2cccc(Cl)c2)c2cc3c(cc2N1)CCC3` (centres undefined) the value was -0.438.
As to `CCOC(=O)c1cc(OC(=O)c2ccccc2)n(-c2ccccc2)n1`, the z-score is -1.99.
